Numbering of substitutions follows the chain as printed. Results are given in words; binding and its absence hold for the method and conditions named. Some entries that bind do so weakly or less than the wild type. For part of these data: Sequences can lack the tags named with a protein.
What was measured:
Test in all cases: nuclear relocation assay; 293T cells co-transfected with UAF1-mRFP and a GFP- or YFP-tagged nuclear DUB variant; nuclear accumulation of UAF1-mRFP seen by confocal microscopy in fixed cells (live cells too for USP1 WT, S313A, S313D; also after USP1 siRNA)
[1] = target: full length USP46 in pNLS(SV40)-GFP (Simian virus 40 | not stated) (UniProt P62068)
GFP-USP1^S313A (human) = target: T1, GFP-USP1^S313A (human) (UniProt O94782)
T1 sequence: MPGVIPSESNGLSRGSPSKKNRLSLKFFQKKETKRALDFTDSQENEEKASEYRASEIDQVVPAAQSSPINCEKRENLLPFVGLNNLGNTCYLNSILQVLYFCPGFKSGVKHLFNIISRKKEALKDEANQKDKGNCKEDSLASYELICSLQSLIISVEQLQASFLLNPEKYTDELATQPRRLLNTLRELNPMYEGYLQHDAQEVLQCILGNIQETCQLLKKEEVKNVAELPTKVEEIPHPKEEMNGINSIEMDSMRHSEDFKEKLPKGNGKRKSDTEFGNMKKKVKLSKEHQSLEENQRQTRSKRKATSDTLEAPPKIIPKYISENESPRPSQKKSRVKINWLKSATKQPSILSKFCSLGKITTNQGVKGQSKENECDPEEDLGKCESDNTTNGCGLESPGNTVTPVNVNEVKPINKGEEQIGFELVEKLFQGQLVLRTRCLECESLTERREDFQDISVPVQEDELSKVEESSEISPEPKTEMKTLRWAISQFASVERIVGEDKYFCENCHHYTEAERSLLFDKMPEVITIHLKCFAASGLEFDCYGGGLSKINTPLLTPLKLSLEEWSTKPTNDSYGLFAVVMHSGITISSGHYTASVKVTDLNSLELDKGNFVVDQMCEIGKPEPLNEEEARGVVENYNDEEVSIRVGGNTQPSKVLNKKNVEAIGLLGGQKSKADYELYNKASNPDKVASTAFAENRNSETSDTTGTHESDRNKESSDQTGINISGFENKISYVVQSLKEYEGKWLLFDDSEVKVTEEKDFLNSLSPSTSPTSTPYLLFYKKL

The chains behind the UniProt entries cited, without tags or fusion partners. Where a name states a change or a piece, a line headed by the entry shows the natural chain unless it says otherwise. A line that says so, or that is headed by a name, gives the form on record, which may keep a tag or linker.
full length USP46 in pNLS(SV40)-GFP (P62068, form named): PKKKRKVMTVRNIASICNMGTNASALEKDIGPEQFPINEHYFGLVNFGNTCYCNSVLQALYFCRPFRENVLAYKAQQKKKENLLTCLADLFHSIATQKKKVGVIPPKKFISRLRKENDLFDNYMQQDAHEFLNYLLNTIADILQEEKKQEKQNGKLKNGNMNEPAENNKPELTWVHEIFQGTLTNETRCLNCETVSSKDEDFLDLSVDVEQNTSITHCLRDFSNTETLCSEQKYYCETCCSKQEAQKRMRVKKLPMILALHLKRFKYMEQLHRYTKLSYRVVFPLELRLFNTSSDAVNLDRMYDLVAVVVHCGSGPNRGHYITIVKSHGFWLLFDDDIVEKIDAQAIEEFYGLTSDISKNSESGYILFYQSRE
UniProt Q8TAF3: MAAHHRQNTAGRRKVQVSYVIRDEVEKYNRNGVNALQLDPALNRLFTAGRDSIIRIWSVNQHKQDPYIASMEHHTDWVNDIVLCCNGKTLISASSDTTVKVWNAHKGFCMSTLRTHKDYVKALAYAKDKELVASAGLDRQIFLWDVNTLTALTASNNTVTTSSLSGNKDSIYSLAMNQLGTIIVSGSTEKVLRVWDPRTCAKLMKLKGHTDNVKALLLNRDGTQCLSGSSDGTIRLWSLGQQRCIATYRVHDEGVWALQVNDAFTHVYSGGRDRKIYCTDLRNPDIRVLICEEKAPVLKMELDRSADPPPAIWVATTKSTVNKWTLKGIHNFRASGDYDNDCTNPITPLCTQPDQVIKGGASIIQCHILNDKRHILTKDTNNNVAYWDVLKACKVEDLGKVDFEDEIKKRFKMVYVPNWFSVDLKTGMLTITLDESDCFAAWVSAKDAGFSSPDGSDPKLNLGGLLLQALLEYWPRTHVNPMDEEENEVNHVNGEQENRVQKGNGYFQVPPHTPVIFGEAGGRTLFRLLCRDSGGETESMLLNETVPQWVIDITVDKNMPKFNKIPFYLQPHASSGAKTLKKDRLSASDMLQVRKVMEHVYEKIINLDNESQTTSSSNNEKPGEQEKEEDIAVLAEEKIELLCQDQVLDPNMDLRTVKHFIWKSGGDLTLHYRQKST

GFP-USP1^K673T (human) = target: T2, GFP-USP1^K673T (human) (UniProt O94782)
T2 sequence: T1 sequence with A313S, K673T

Measured: binding

UAF1-mRFP (from UniProt Q8TAF3 1-677)
binds: all assays above
